Assay results taken from PubChem BioAssay AID1476 (National Center for Advancing Translational Sciences (NCATS), 2009).
Out of some 200,000 compounds screened, about 4,500 (2.2%) were called active. Inconclusive results, whose numbers are uncertain, are shown with a selection of clear calls. Calls follow the shape of the dose curve; as a rule, active = well fitted inhibition curve with a large enough effect; inconclusive = small, poorly fitted or top-dose-only effect, or effect the other way; inactive = flat fitted curve, though single readings scatter. Where the call is inconclusive, the potency comes from a doubtful curve fit.

Molecular target: Cruzipain (Trypanosoma cruzi) (UniProt P25779)
Chain of UniProt P25779 (P25779 whole entry, looked up): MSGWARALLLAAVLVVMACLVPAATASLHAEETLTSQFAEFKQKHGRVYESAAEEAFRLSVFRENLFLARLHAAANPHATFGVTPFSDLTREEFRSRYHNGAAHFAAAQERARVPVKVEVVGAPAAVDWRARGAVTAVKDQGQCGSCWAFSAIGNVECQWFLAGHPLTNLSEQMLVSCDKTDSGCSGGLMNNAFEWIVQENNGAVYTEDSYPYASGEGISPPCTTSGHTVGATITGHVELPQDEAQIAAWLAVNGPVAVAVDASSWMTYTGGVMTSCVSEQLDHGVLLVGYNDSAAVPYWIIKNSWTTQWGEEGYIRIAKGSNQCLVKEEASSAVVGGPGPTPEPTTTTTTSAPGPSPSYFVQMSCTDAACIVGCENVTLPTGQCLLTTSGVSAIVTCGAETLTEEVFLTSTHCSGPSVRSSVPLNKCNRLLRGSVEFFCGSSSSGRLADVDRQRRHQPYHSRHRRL
Assay: qHTS Assay for Promiscuous and Specific Inhibitors of Cruzain (without detergent); also: nearly all actives have a fitted effect of over 40% in size;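 as to max response, negative = inhibition: plate controls were enzyme without inhibitor for no effect and buffer without enzyme for full effect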
Conditions: purified cruzain, Z-FR-AMC fluorescence, no detergent
How it was run: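 Detergent-free condition (0.00005% Triton X-100) in acetate buffer pH 5.5 with DTT. 1.5 nM enzyme and compound were pre-mixed 15 min, then 2 uM Z-FR-AMC substrate added; reaction progress from fluorescence change between first and third reads (60 s).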
Potency is read from the fitted curve at half-maximal effect; tags tell the direction and shape of the fitted curve.

| Compound | Potency | max response, negative = inhibition |
| --- | --- | --- |
| O=C1N(Cc2ccccc2Cl)c2ccccc2C1(O)c1c[nH]c2ccccc12 (centres undefined) | inconclusive: 39.8 µM [activator, single point] | – |
| COc1ccc(CNC(=O)Cn2ccc3cc(S(=O)(=O)N4CCCCC4)ccc32)cc1OC | inconclusive: 39.8 µM [activator, single point] | – |
| Cc1nc(Oc2ccc(S(=O)(=O)N3CCOCC3)cc2Cl)c2c3c(sc2n1)CCCC3 | inconclusive: 31.6 µM [activator, single point] | – |
| Cc1[nH]c2ccccc2c1/C=N/Nc1ccc([N+](=O)[O-])cc1S(=O)(=O)Nc1ccc(Cl)cc1 | active: 5.01 µM | – |
| O=C(CSc1nnc(-c2c[nH]c3ccccc23)o1)c1ccccc1 | inconclusive: 39.8 µM [inhibitor, single point] | – |
| Cc1nc2nc(NC(=O)c3ccc(C(C)(C)C)cc3)[nH]n2c(=O)c1Cc1ccccc1 | inconclusive: 25.1 µM [inhibitor, single point] | – |
| CCCn1nc(NC(=O)c2ccncc2)c2cc3ccccc3nc21 | inconclusive: 39.8 µM [activator, single point] | – |
| O=C(CNC(=O)c1ccc(Br)cc1)N/N=C/c1ccc[nH]1 | inconclusive: 1.26 µM [inhibitor, single point] | – |
| Cc1ccc(CN(Cc2ccco2)C(=O)c2oc3cc(Br)ccc3c2C)cc1 | inconclusive: 31.6 µM [inhibitor, single point] | – |
| Cc1cccc(NC2=C/C(=N/S(=O)(=O)c3cccs3)c3ccccc3C2=O)c1 | inconclusive: 39.8 µM [inhibitor, single point] | – |
| COc1ccc(OC)c(NC(=O)CN2C(=O)CC(C)Sc3ccccc32)c1 (centres undefined) | – | inactive: -1.35% |
| COC(=O)[C@@]1(C)C[C@@H]1[C@@H](NC(=O)[C@@]1(C)C[C@@H]1[C@@H](NC(=O)[C@@]1(C)C[C@@H]1[C@@H](NC(=O)[C@@]1(C)C[C@@H]1[C@@H](NC(=O)OCc1ccccc1)c1ccccc1)c1ccccc1)c1ccccc1)c1ccccc1 | inconclusive: 6.31 µM [inhibitor, full curve, poor fit] | – |
| CC(C)CC(=O)Nc1nnc(S(=O)(=O)N(C)Cc2ccc(Cl)cc2)s1 | – | inactive: -15% |
| COc1ccc2c(c1)c(=O)c(S(=O)(=O)c1ccccc1)cn2CC(=O)Nc1ccc(C)c(Cl)c1 | active: 20 µM | – |
| COc1ccc(NC(=O)c2cn(-c3ccccc3)nc2-c2cc3ccccc3o2)cc1 | inconclusive: 39.8 µM [inhibitor, single point] | – |
| Cc1cccc2c1N(Cc1ccccc1OCCC(C)C)C(=O)C2=O | – | inactive: 2.61% |
| COc1cccc(CNC(=O)Cn2nc(-c3ccc(Cl)cc3)ccc2=O)c1 | inconclusive: 39.8 µM [activator, single point] | – |
| Cc1cc(=O)oc2cc(NC(=O)C3COc4ccccc4O3)ccc12 (centres undefined) | inconclusive: 25.1 µM [inhibitor, single point] | – |
| Cc1ccc(CN2CCN(Cc3ccc(C)o3)[C@@H](C)C2)o1 | – | inactive: -0.901% |
| COc1ccc(Oc2coc3cc(OC(=O)/C=C/c4ccc(F)cc4)ccc3c2=O)cc1 | inconclusive: 39.8 µM [inhibitor, single point] | – |

| Compound | Potency | max response, negative = inhibition |
| --- | --- | --- |
| CCc1ccccc1NS(=O)(=O)c1ccc2c(c1)CC(=O)N2 | – | inactive: 2.93% |
| COc1ccc(-c2cc(C(F)(F)F)n3nc(-c4ccccc4)cc3n2)cc1OC | inconclusive: 3.16 µM [activator, full curve, poor fit] | – |
| CCOC(=O)c1cc(S(=O)(=O)Nc2cc(F)ccc2C)[nH]n1 | – | inactive: 12.8% |
| CCOc1ccc(C(=O)Nc2ccc(-c3cc4ccccc4oc3=O)c(C)c2)cc1[N+](=O)[O-] | inconclusive: 39.8 µM [inhibitor, single point] | – |
| COc1ccc(Cl)cc1Nc1nc(NCCO)nc(N2CCCC2)n1 | inconclusive: 7.94 µM [activator, single point] | – |
| COc1ccc(C(CC(=O)NCc2ccccc2)Sc2n[nH]c(-c3ccc(Cl)cc3)n2)cc1 (centres undefined) | inconclusive: 25.1 µM [inhibitor, single point] | – |
| COc1ccc(Cl)cc1NC(=O)C(C)Sc1nc2c(c(=O)[nH]1)CCCC2 (centres undefined) | – | inactive: -3.86% |
| O=C(c1cccc(C(=O)N2CCN(c3ccccc3F)CC2)c1)N1CCN(c2ccccc2F)CC1 | inconclusive: 39.8 µM [activator, single point] | – |
| CCOc1ccc(/C=C/c2nc(C#N)c(NCc3ccccc3)o2)cc1 | – | inactive: 3.36% |
| O=C(CCC1N=C2c3ccccc3N=C(SCc3ccc(F)cc3)N2C1=O)NCCc1ccccc1 (centres undefined) | inconclusive: 25.1 µM [activator, partial curve] | – |
| Cc1ccc(NC(=O)C2CCCN(C(=O)c3cnn(-c4ccc(F)cc4)c3-n3cccc3)C2)c(Cl)c1 (centres undefined) | inconclusive: 39.8 µM [activator, single point] | – |
| CC1(C)O[C@H]2[C@@H](O1)[C@@H](C(=O)Nc1ccccc1C(F)(F)F)O[C@@H]1OC(C)(C)O[C@@H]12 | – | inactive: 15.1% |
| O=C(NCCc1ccccc1Cl)C1CCN(c2nc3ccccc3nc2C(F)(F)F)CC1 | – | inactive: 2.97% |
| Cc1oc(-c2cccc(Cl)c2)nc1CS(=O)(=O)CC(=O)NC(C)CCc1ccccc1 (centres undefined) | inconclusive: 12.6 µM [activator, partial curve] | – |
| CCCCN(CC)C(=O)c1nn(C)c2c1CSc1ccccc1-2 | – | inactive: -19.9% |
| CCOc1ccccc1CNC(=O)c1ccc2c(c1)N(Cc1ccc(C)cc1)CCS2 | inconclusive: 15.8 µM [inhibitor, single point] | – |
| Cc1nc2ccc(Br)cc2c(=O)n1-c1ccc([N+](=O)[O-])c(C(F)(F)F)c1 | inconclusive: 39.8 µM [inhibitor, single point] | – |
| CC(=O)c1cccc(NC(=O)CSc2nc(=O)n(Cc3ccco3)c3c2CCC3)c1 | – | inactive: -5.07% |
| COc1cc(C(=O)NCCCc2nc3ccccc3n2Cc2cc(C)ccc2C)cc(OC)c1OC | inconclusive: 39.8 µM [activator, single point] | – |
